Results: the supplement of paper PMC8007513
Counter-ions that a name gives are not always drawn. ± gives the standard error. The campaign covered roughly 1,300 compounds. About 130 (10%) showed an effect of 50% or more. The list shows a part of the results, in another mix than the full data.

Tested on: Trichoderma virens ATCC 9645
Experiment: growth yield (OD600) with compound + IPBC relative to untreated control; higher = less growth inhibition
Conditions: compound concentration: 100 uM, IPBC concentration: 200 ng/ml
Outline: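 Trichoderma virens ATCC 9645 spores from 7-day potato dextrose agar plates were suspended in potato dextrose broth at 15,000 spores ml^−1. Aliquots of 100 μl with library compounds at 100 μM final, with or without a co-applied biocide at 200 ng ml^−1, were grown in 96-well plates at 30 °C. OD600 was read at 40 h and 72 h on a BioTek EL800. Growth is expressed relative to the control without either agent, as means of duplicate screens.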

Row | Compound | growth yield (40 h) | growth yield (72 h)
1 | CC(C(O)c1ccc(O)cc1)N1CCC(Cc2ccccc2)CC1 (centres undefined) [Ifenprodil tartrate] + CCCCNC(=O)OCC#CI [3-iodo-2-propynyl butylcarbamate (IPBC)] | 92 ± 7.5% | 96.8 ± 6.2%
2 | CC#C[C@]1(O)CC[C@H]2[C@@H]3CCC4=CC(=O)CCC4=C3[C@@H](c3ccc(N(C)C)cc3)C[C@@]21C [Mifepristone] + CCCCNC(=O)OCC#CI [3-iodo-2-propynyl butylcarbamate (IPBC)] | 104 ± 5.4% | 110 ± 2.3%
3 | CCCCCCNC(=O)n1cc(F)c(=O)[nH]c1=O [Carmofur] + CCCCNC(=O)OCC#CI [3-iodo-2-propynyl butylcarbamate (IPBC)] | 21.9 ± 0.95% | 31.4 ± 0.32%
4 | CCN(CC)C(=O)Nc1ccc(OCC(O)CNC(C)(C)C)c(C(C)=O)c1 (centres undefined) [Celiprolol hydrochloride] + CCCCNC(=O)OCC#CI [3-iodo-2-propynyl butylcarbamate (IPBC)] | 87 ± 5.7% | 92.2 ± 3.9%
5 | CCCCC1C(=O)N(c2ccccc2)N(c2ccc(O)cc2)C1=O (centres undefined) [Oxyphenbutazone] + CCCCNC(=O)OCC#CI [3-iodo-2-propynyl butylcarbamate (IPBC)] | 91.3 ± 19% | 103 ± 7.9%
6 | N[C@H]1CONC1=O [(S)-(-)-Cycloserine] + CCCCNC(=O)OCC#CI [3-iodo-2-propynyl butylcarbamate (IPBC)] | 88% | 88.7 ± 1.1%
7 | CN1[C@@H]2C[C@@H](OC(=O)[C@H](CO)c3ccccc3)C[C@H]1[C@@H]1O[C@@H]12 [Scopolamine hydrochloride] + CCCCNC(=O)OCC#CI [3-iodo-2-propynyl butylcarbamate (IPBC)] | 94.4 ± 7.9% | 94.1 ± 3.5%
8 | COc1cc2nc(N3CCN(C(=O)C4COc5ccccc5O4)CC3)nc(N)c2cc1OC (centres undefined) [Doxazosin mesylate] + CCCCNC(=O)OCC#CI [3-iodo-2-propynyl butylcarbamate (IPBC)] | 62.6 ± 18% | 90.1 ± 15%
9 | C#C[C@]1(O)CC[C@H]2[C@@H]3CCC4=CC(=O)CCC4=C3C=C[C@@]21CC [Gestrinone] + CCCCNC(=O)OCC#CI [3-iodo-2-propynyl butylcarbamate (IPBC)] | 100 ± 2.4% | 95.54 ± 0.32%
10 | CCN(CCCCOC(=O)c1ccc(OC)c(OC)c1)C(C)Cc1ccc(OC)cc1 (centres undefined) [Mebeverine hydrochloride] + CCCCNC(=O)OCC#CI [3-iodo-2-propynyl butylcarbamate (IPBC)] | 80.7 ± 3.8% | 93.3 ± 1.9%
11 | CCN(CC)C(=O)C1(c2ccccc2)CC1CN (centres undefined) [Milnacipran hydrochloride] + CCCCNC(=O)OCC#CI [3-iodo-2-propynyl butylcarbamate (IPBC)] | 92.9 ± 6.8% | 91.7 ± 4.2%
12 | Cc1cc(C(C)(C)C)cc(C)c1CC1=NCCN1 [Xylometazoline hydrochloride] + CCCCNC(=O)OCC#CI [3-iodo-2-propynyl butylcarbamate (IPBC)] | 86.6 ± 3.6% | 98.2 ± 3.6%
13 | CCN(CC)CCOCCOC(=O)C1(c2ccccc2)CCCC1 [Carbetapentane citrate] + CCCCNC(=O)OCC#CI [3-iodo-2-propynyl butylcarbamate (IPBC)] | 74.8 ± 1.8% | 88.94 ± 0.42%
14 | C=CCOc1ccccc1OCC(O)CNC(C)C (centres undefined) [Oxprenolol hydrochloride] + CCCCNC(=O)OCC#CI [3-iodo-2-propynyl butylcarbamate (IPBC)] | 92 ± 6.8% | 93.8 ± 4.4%
15 | NC[C@H]1O[C@H](O[C@H]2[C@H](O)[C@@H](O[C@H]3O[C@H](CO)[C@@H](O)[C@H](N)[C@H]3O)[C@H](N)C[C@@H]2N)[C@H](N)C[C@@H]1O [Tobramycin] + CCCCNC(=O)OCC#CI [3-iodo-2-propynyl butylcarbamate (IPBC)] | 76.4 ± 0.16% | 85.9 ± 1.4%
16 | Cc1c(N)c(=O)n(-c2ccccc2)n1C [Ampyrone] + CCCCNC(=O)OCC#CI [3-iodo-2-propynyl butylcarbamate (IPBC)] | 104 ± 3.8% | 105 ± 1.8%
17 | CCOC(=O)/C=C(C)/C=C/C=C(C)/C=C/c1c(C)cc(OC)c(C)c1C [Etretinate] + CCCCNC(=O)OCC#CI [3-iodo-2-propynyl butylcarbamate (IPBC)] | 112 ± 16% | 105 ± 11%
18 | Nc1ccc(S(=O)(=O)Nc2nccs2)cc1 [Sulfathiazole] + CCCCNC(=O)OCC#CI [3-iodo-2-propynyl butylcarbamate (IPBC)] | 85.14 ± 0.32% | 86.1 ± 0.94%
19 | CC(CNC1CCCCC1)OC(=O)c1ccccc1 (centres undefined) [Hexylcaine hydrochloride] + CCCCNC(=O)OCC#CI [3-iodo-2-propynyl butylcarbamate (IPBC)] | 119 ± 12% | 113 ± 10%
20 | Cc1ccc(-c2cc(C(F)(F)F)nn2-c2ccc(S(N)(=O)=O)cc2)cc1 [Celecoxib] + CCCCNC(=O)OCC#CI [3-iodo-2-propynyl butylcarbamate (IPBC)] | 57.8 ± 0.64% | 78.76 ± 0.73%
21 | C[C@@H]1CCC[C@H](C)N1NC(=O)c1ccc(Cl)c(S(N)(=O)=O)c1 [Clopamide] + CCCCNC(=O)OCC#CI [3-iodo-2-propynyl butylcarbamate (IPBC)] | 80.85 ± 0.48% | 91.1 ± 0.94%
22 | CC[C@H]1OC(=O)[C@H](C)[C@@H](O[C@H]2C[C@@](C)(OC)[C@@H](O)[C@H](C)O2)[C@H](C)[C@@H](O[C@@H]2O[C@H](C)C[C@H](N(C)C)[C@H]2O)[C@](C)(O)C[C@@H](C)CN(C)[C@H](C)[C@@H](O)[C@]1(C)O [Azithromycin] + CCCCNC(=O)OCC#CI [3-iodo-2-propynyl butylcarbamate (IPBC)] | 108.7 ± 0.95% | 106 ± 0.32%
23 | NCC(CC(=O)O)c1ccc(Cl)cc1 (racemic) [Baclofen (R,S)] + CCCCNC(=O)OCC#CI [3-iodo-2-propynyl butylcarbamate (IPBC)] | 96.1 ± 4% | 96.8 ± 3.2%
24 | CN[C@H]1CC[C@@H](c2ccc(Cl)c(Cl)c2)c2ccccc21 [Sertraline] + CCCCNC(=O)OCC#CI [3-iodo-2-propynyl butylcarbamate (IPBC)] | 30.8 ± 4.1% | 
25 | CC(=O)Nc1c(I)c(C(=O)N[C@H]2C(O)O[C@H](CO)[C@@H](O)[C@@H]2O)c(I)c(N(C)C(C)=O)c1I (some centres undefined) [Metrizamide] + CCCCNC(=O)OCC#CI [3-iodo-2-propynyl butylcarbamate (IPBC)] | 98.8 ± 8.6% | 100 ± 8.3%
